From publication PMC4336329 (PLoS ONE, 2015)
Screen size: about 310,000 compounds; about 2,200 (0.71%) showed an effect of 50% or more. Effects have a minus sign here. The list shows a part of the results.

The compounds below were run against human ether-à-go-go-related gene (hERG) potassium channel (human, UniProt Q12809) (assay: primary screen, population patch clamp on CHO cells stably expressing hERG).
human ether-à-go-go-related gene (hERG) potassium channel, sequence (Q12809 whole entry, looked up): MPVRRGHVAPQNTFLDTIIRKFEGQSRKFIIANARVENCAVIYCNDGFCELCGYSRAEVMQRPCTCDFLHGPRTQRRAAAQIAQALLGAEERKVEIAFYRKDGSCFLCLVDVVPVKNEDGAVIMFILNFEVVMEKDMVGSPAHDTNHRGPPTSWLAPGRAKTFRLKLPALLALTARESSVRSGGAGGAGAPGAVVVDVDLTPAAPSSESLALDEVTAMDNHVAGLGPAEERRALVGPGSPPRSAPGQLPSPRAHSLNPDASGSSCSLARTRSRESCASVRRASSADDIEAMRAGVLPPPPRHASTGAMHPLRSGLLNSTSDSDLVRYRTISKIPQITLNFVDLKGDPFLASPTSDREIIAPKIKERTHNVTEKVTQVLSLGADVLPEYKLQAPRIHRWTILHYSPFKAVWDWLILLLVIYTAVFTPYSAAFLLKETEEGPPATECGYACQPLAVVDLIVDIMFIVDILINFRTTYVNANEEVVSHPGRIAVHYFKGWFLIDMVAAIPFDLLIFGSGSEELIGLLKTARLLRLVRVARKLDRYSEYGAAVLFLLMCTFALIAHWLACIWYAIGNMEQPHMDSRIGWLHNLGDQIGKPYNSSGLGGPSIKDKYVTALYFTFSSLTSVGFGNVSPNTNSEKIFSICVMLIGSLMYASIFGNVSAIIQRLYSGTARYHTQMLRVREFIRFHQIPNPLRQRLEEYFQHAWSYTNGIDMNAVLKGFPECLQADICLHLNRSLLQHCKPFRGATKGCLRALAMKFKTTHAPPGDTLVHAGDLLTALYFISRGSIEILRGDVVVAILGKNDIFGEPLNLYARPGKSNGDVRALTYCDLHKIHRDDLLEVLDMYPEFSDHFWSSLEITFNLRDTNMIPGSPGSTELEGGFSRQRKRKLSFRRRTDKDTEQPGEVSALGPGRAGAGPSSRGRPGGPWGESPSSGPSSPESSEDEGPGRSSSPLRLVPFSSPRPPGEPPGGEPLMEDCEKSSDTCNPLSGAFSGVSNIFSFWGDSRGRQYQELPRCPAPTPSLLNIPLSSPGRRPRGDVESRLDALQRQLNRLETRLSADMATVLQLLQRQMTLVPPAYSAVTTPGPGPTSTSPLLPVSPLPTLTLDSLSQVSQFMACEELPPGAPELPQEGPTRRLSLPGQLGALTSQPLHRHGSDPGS
With COc1ccccc1Nc1nc(-c2sc(NC(=O)C(C)(C)C)nc2C)cs1 the “hERG current change (%, negative = inhibition) at 1uM” value was 13.7%. For CCOC(=O)c1cc(-c2ccccc2)sc1NC(=O)C(C)OC(=O)c1ccncc1 (stereo not shown), the “hERG current change (%, negative = inhibition) at 1uM” value was 8.58%. In the case of O=C(COC(=O)c1cc(Cl)ccc1O)NCCNC(=O)COC(=O)c1cc(Cl)ccc1O, the “hERG current change (%, negative = inhibition) at 1uM” value is reported as 14.6%. COc1ccccc1C(=O)Nc1ccc(OCC(=O)N2CCCCC2C)cc1 (stereo not shown) was tested, and the “hERG current change (%, negative = inhibition) at 1uM” value was 6.26%. CCn1c(-c2cccn(Cc3ccc(Cl)cc3Cl)c2=O)n[nH]c1=S was tested, and the “hERG current change (%, negative = inhibition) at 1uM” value was 15.6%. In the case of CN1CCN(Cc2nnc(-c3ccccc3)o2)CC1, the “hERG current change (%, negative = inhibition) at 1uM” value is reported as 18.2%. With CC(=O)NC12CC3CC(C1)CC(C(=O)N1CCN(c4ncccn4)CC1)(C3)C2 the “hERG current change (%, negative = inhibition) at 1uM” value was 13%. CCOC(=O)c1ccc(N2C(=O)CC(NNC(=O)c3ccc(Br)s3)C2=O)cc1 (stereo not shown) was tested, and the “hERG current change (%, negative = inhibition) at 1uM” value was 12.8%. For COc1ccc(/C=C(\NC(=O)c2ccco2)C(=O)NCCc2nc3ccccc3[nH]2)cc1, the “hERG current change (%, negative = inhibition) at 1uM” value was -8.54%. With O=C(/C=C/c1cccc([N+](=O)[O-])c1)NC(=S)Nc1ccc(CN2CCOCC2)cc1 the “hERG current change (%, negative = inhibition) at 1uM” value was 7.21%. In the case of O=C(Oc1ccc(-c2nc(-c3ccccn3)no2)cc1)c1ccccc1, the “hERG current change (%, negative = inhibition) at 1uM” value is reported as 8.55%. In the case of O=C(CSc1ccc2ccccc2c1)NCc1cccs1, the “hERG current change (%, negative = inhibition) at 1uM” value is reported as 13.5%. In the case of COc1cccc(-c2ccc(SCC(=O)N3CCN(c4ccccc4)CC3)nn2)c1, the “hERG current change (%, negative = inhibition) at 1uM” value is reported as 1.33%. For Cc1sc(N2CCN(S(=O)(=O)c3ccc4c(c3)NC(=O)CO4)CC2)nc1-c1ccccc1, the “hERG current change (%, negative = inhibition) at 1uM” value was 5.53%. For COc1ccc(N(CC(=O)N/N=C/c2ccc(N(C)C)cc2)S(=O)(=O)c2ccccc2)cc1, the “hERG current change (%, negative = inhibition) at 1uM” value was 17.1%. For Cc1cc(C)nc(N(C#N)S(=O)(=O)c2ccccc2Cl)n1, the “hERG current change (%, negative = inhibition) at 1uM” value was 8.84%. With CC1c2cc3c(cc2CCN1C(=O)c1ccc(C(F)(F)F)cc1)OCCCO3 (stereo not shown) the “hERG current change (%, negative = inhibition) at 1uM” value was 27.1%. With O=C(OCCOc1cccc(Cl)c1)c1ccc2ncsc2c1 the “hERG current change (%, negative = inhibition) at 1uM” value was 5.97%. COc1ccc2oc(C(=O)NCCC(C)C)c(C)c2c1 was tested, and the “hERG current change (%, negative = inhibition) at 1uM” value was 3.16%. For CCOc1ccc(C(C)=O)cc1COC(=O)c1cc([N+](=O)[O-])ccc1N1CCOCC1, the “hERG current change (%, negative = inhibition) at 1uM” value was 5.92%. In the case of O=C(NNC(=O)c1cnccc1C(F)(F)F)c1ccccc1, the “hERG current change (%, negative = inhibition) at 1uM” value is reported as 1.87%. Cc1nc2ccccc2c(C)c1CC(=O)OC(C)C(=O)NC1(C#N)CCCCC1 (stereo not shown) was tested, and the “hERG current change (%, negative = inhibition) at 1uM” value was 11.1%. In the case of Cc1cccc(C(=O)OCC(=O)c2cccc(Br)c2)c1O, the “hERG current change (%, negative = inhibition) at 1uM” value is reported as 8.86%. With COc1ccc(C(C(=O)NC2CCCCC2)N(C(=O)c2sc(C)nc2C)c2ccccc2)cc1 (stereo not shown) the “hERG current change (%, negative = inhibition) at 1uM” value was 11.8%. In the case of Cc1c(NC(=S)Nc2ccccc2)c(=O)n(-c2ccccc2)n1C, the “hERG current change (%, negative = inhibition) at 1uM” value is reported as 25.5%. CCOc1cccc(/C=N/NS(=O)(=O)c2ccc(C)c([N+](=O)[O-])c2)c1O was tested, and the “hERG current change (%, negative = inhibition) at 1uM” value was 21.4%. COc1ccc(C2=NN(C(=O)CCC(=O)O)C(c3ccc(Br)cc3)C2)cc1 (stereo not shown) was tested, and the “hERG current change (%, negative = inhibition) at 1uM” value was 25.5%. With CCOC(=O)C1CCN(C(=O)Nc2ccc(Cl)cc2Cl)CC1 the “hERG current change (%, negative = inhibition) at 1uM” value was 19.4%. In the case of COc1ccc(S(=O)(=O)NCc2ccc(C(=O)NCCCN3CC(C)CC(C)C3)cc2)cc1 (stereo not shown), the “hERG current change (%, negative = inhibition) at 1uM” value is reported as 14.1%. CC1CCN(c2nc(-c3ccc(F)cc3)cc(C(F)(F)F)n2)CC1 was tested, and the “hERG current change (%, negative = inhibition) at 1uM” value was 19.8%. With O=C(/C=C/c1ccccn1)c1cc(Cl)cc(Cl)c1O the “hERG current change (%, negative = inhibition) at 1uM” value was 13.7%. O=C(Nc1cccn2ncnc12)C(Cl)Cl was tested, and the “hERG current change (%, negative = inhibition) at 1uM” value was 9.19%. In the case of O=C(/C=C/c1ccc(F)cc1)Nc1ccc2[nH]c(=O)[nH]c2c1, the “hERG current change (%, negative = inhibition) at 1uM” value is reported as 9.47%. For O=C(CCN1C(=O)/C(=C/c2cccs2)SC1=S)Nc1ccc(C(=O)O)c(O)c1, the “hERG current change (%, negative = inhibition) at 1uM” value was 9.27%. In the case of CC(C)Oc1ccc(C(CC(=O)O)NC(=O)Cc2ccccc2)cc1 (stereo not shown), the “hERG current change (%, negative = inhibition) at 1uM” value is reported as 14.7%. For CC(=O)Nc1cccc(N2C(=O)CCC2=O)c1, the “hERG current change (%, negative = inhibition) at 1uM” value was 14.1%. O=C(NCC1CCCO1)c1cccc(N2CCCC2=O)c1 (stereo not shown) was tested, and the “hERG current change (%, negative = inhibition) at 1uM” value was 16.9%. With CCN(CC)c1ccc(NC(=O)COC(=O)c2cccs2)cc1.O=S(=O)(O)O the “hERG current change (%, negative = inhibition) at 1uM” value was -5.6%. With Cc1ccc(S(=O)(=O)Nc2cc(C)nn2-c2ccccc2)cc1 the “hERG current change (%, negative = inhibition) at 1uM” value was 8.38%. Cc1ccc(CNC(=O)C2CCCN(S(=O)(=O)c3c(C)n[nH]c3C)C2)cc1 (stereo not shown) was tested, and the “hERG current change (%, negative = inhibition) at 1uM” value was 0.141%. In the case of Cc1sc2ncn(CC(=O)NCCCC(=O)NCc3ccc(F)cc3)c(=O)c2c1C, the “hERG current change (%, negative = inhibition) at 1uM” value is reported as 8.91%. For O=c1oc2ccccc2c(NCc2ccc(Cl)cc2)c1[N+](=O)[O-], the “hERG current change (%, negative = inhibition) at 1uM” value was -0.351%. For Cc1nn(-c2ccccc2)c2c1cc1c(=O)n(C)c(=O)nc-1n2-c1ccccc1F, the “hERG current change (%, negative = inhibition) at 1uM” value was 10.6%. Cc1ccc2nc3c(nc2c1C)CCCC3 was tested, and the “hERG current change (%, negative = inhibition) at 1uM” value was 9.66%. O=C(Nc1ccc(SC(F)F)cc1)C1=CC=CN2CCS(=O)(=O)N=C12 was tested, and the “hERG current change (%, negative = inhibition) at 1uM” value was -4.25%. With Cc1ccc(S(=O)(=O)NCC2NCCc3ccccc32)cc1 (stereo not shown) the “hERG current change (%, negative = inhibition) at 1uM” value was 1.8%. For CC(C)c1nnc(NC(=O)C2c3ccccc3Oc3ccccc32)s1, the “hERG current change (%, negative = inhibition) at 1uM” value was 12.3%. In the case of Cc1ccc(S(=O)(=O)N2CCN(C(=O)CN3C(=O)c4ccc([N+](=O)[O-])cc4C3=O)CC2)cc1C, the “hERG current change (%, negative = inhibition) at 1uM” value is reported as 13.2%. In the case of Cn1cc(CN2CCc3c([nH]c4ccccc34)C2C(C)(C)C)cn1 (stereo not shown), the “hERG current change (%, negative = inhibition) at 1uM” value is reported as -3.25%. CN1CCN(c2nc3ccccn3c(=O)c2C=C(C#N)C#N)CC1 was tested, and the “hERG current change (%, negative = inhibition) at 1uM” value was 12.9%. For O=C(COc1ccccc1)N(Cc1nnc(-c2ccccc2Cl)o1)C1CC1, the “hERG current change (%, negative = inhibition) at 1uM” value was 9.68%. For CN1/C(=C\C(=O)COc2ccc3c(c2)OCO3)C(C)(C)c2ccccc21, the “hERG current change (%, negative = inhibition) at 1uM” value was 9.25%. CCCCN1C(C)=CC(=C2C(=O)c3ccccc3C2=O)C=C1C was tested, and the “hERG current change (%, negative = inhibition) at 1uM” value was 6.34%. In the case of COc1ccc(CNC2CCCCC2C)c(OC)c1 (stereo not shown), the “hERG current change (%, negative = inhibition) at 1uM” value is reported as -9.1%. C=CCN1C(=O)c2ccc(C(=O)OCC(=O)N(CC)C3CCS(=O)(=O)C3)cc2C1=O (stereo not shown) was tested, and the “hERG current change (%, negative = inhibition) at 1uM” value was 2.52%.
